Among all 310,000 compounds or so, about 2,200 (0.71%) showed an effect of 50% or more. The effect is printed as a negative number. This is one part of the list.
biological target: human ether-à-go-go-related gene (hERG) potassium channel (human, UniProt Q12809); assay: primary screen, population patch clamp on CHO cells stably expressing hERG
Sequence (Q12809 whole entry, looked up): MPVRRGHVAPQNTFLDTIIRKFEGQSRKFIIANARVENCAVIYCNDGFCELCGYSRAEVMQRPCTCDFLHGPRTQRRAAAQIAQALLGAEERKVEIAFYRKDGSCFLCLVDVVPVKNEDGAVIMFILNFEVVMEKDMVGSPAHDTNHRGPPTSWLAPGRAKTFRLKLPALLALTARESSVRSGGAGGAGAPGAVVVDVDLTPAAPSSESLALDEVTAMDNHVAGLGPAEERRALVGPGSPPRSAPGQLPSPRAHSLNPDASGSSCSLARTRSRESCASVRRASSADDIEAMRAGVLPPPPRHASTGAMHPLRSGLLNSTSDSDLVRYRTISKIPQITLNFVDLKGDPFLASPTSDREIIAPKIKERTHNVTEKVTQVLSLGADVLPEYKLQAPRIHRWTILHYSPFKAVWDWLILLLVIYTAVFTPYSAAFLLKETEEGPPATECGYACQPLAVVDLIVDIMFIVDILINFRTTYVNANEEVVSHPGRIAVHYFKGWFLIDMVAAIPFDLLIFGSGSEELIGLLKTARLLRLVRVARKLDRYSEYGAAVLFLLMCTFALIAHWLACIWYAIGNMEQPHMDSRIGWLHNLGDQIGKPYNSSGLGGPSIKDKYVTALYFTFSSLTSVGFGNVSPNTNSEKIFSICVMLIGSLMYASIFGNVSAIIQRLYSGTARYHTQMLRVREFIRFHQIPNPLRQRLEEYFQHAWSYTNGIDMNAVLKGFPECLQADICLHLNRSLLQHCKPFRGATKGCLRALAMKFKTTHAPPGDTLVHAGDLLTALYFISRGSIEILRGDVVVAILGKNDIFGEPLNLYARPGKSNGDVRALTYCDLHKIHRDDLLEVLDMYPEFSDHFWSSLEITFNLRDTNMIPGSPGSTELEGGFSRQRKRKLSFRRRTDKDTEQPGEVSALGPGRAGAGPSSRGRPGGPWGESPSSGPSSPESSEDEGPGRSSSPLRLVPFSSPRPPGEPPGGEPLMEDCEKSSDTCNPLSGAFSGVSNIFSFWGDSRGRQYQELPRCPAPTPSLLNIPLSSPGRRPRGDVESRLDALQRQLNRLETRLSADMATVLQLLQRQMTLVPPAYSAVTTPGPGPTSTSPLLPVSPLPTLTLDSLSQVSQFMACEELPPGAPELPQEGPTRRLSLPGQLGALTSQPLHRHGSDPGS

Row | Compound | hERG current change (%, negative = inhibition) at 1uM
1 | CCOc1ccccc1CN(CCc1ccc2c(c1)OCO2)Cc1ccccn1 | -13.6%
2 | O=C(Cn1nc(-c2ccc(Cl)cc2)ccc1=O)NCCN1CCOCC1 | 11.7%
3 | CCOC(=O)C1CCCN(CCCc2ccccc2)C1.Cl (stereo not drawn) | -14.7%
4 | CC1CCCC(C)N1/N=C/c1ccc(O)c(O)c1 (stereo not drawn) | 6.2%
5 | Cc1cc(/C=C2\C(=O)NC(=O)N(C)C2=O)c(C)n1-c1ccc2c(c1)OCO2 | 13.5%
6 | Cc1ccccc1NC(=O)Cn1c(NCC(C)O)nc2ccccc21 (stereo not drawn) | -3.14%
7 | O=C(c1cccs1)N1CCN(CCc2ccccc2)CC1 | -24.7%
8 | CC1CCCN(S(=O)(=O)c2ccc(Cl)s2)C1 (stereo not drawn) | 12%
9 | Cc1ncc([N+](=O)[O-])n1CC(=O)Nc1ccccc1 | 10.7%
10 | CCOC(=O)c1cnc(-n2nc(C)cc2C)nc1Nc1ccc(OC)cc1 | -10.8%
11 | Cc1ccc(CN2CC(C(=O)Nc3ncccc3C)CC2=O)cc1 (stereo not drawn) | -3.17%
12 | c1coc(CNc2nc(-c3ccncc3)cs2)c1 | 2.54%
13 | O=C(NCC1CC1)c1cc(-c2ccccc2)nn1CC1CC(c2cccc([N+](=O)[O-])c2)=NO1 (stereo not drawn) | -4.28%
14 | O=C(COc1ncnc2sccc12)N1CCN(C(=O)c2ccco2)CC1 | 12.4%
15 | COc1ccc(Cn2c(CCC(=O)NCCC(C)C)nc3ncccc3c2=O)cc1 | -12%
16 | Cc1ccc(C)c(NC2=NCC(=O)N2c2ccc3c(c2)OCCO3)c1 | -0.557%
17 | Cc1cc([N+](=O)[O-])c(C)cc1-c1ccc(/C=N/NC(=O)Cn2nnnc2N)o1 | 8.58%
18 | Cn1c(=O)c(C(=O)NC2CCCCCC2)c(O)c2ccccc21 | 15.5%
19 | C/C=C/C(=O)Nc1cccc(C2=NOC3(C2)C[C@@H](C(N)=O)N(C(=O)C(c2ccccc2)c2ccccc2)C3)c1 (stereo partly drawn) | 9.84%
20 | COc1ccc(-n2nnnc2SCC(=O)N2C(C)CCCC2C)c(OC)c1 (stereo not drawn) | 8.14%
21 | CC(C)(C)NC(=O)C1N(c2cccnc2)C(=O)C2C(C(=O)Nc3ccccc3F)C3(C)C=CC21O3 (stereo not drawn) | -13.1%
22 | O=C(Cn1cc(C(F)(F)F)cc(Cl)c1=O)Nc1cc(Cl)cc(Cl)c1 | 10.3%

Row | Compound | hERG current change (%, negative = inhibition) at 1uM
23 | O=[N+]([O-])c1nn(-c2ccc(Cl)cc2)n(O)c1=NCc1ccccc1Cl | 6.45%
24 | Cc1ccc(C(=O)C(C)OC(=O)c2cc(=O)[nH]c3ccccc23)cc1 (stereo not drawn) | 19.9%
25 | Cc1cc(C)c(S(=O)(=O)NCc2ccccn2)cc1C | 10.3%
26 | CCOC(=O)C(NC(=O)c1ccccc1Cl)(Nc1ccc(C(F)(F)F)cc1)C(F)(F)F (stereo not drawn) | 4.99%
27 | O=C(O)c1ccc(Oc2cc(Oc3ccc(C(=O)O)cc3)cc([N+](=O)[O-])c2)cc1 | 12%
28 | CCOC(=O)/C=c1\s/c(=C\c2c(OC)ccc3ccccc23)c(=O)n1CC(=O)NCC1CCCO1 (stereo not drawn) | 7.6%
29 | O=C(COc1ccc(/C=N/NC(=O)c2ccc(O)cc2)cc1)Nc1cccc([N+](=O)[O-])c1 | 19.6%
30 | Cc1ccc2c(C)c(C(=O)NCCN3CCCC(O)C3)oc2c1C (stereo not drawn) | 14.1%
31 | COc1cc(C(=O)NCCc2ccc(S(=O)(=O)N3CCCC3)cc2)cc(OC)c1OC | -7%
32 | Cc1cc(/C=N/n2cnnc2)c(C)n1-c1ccc(Cl)cc1Cl | 6.1%
33 | NC(=O)N/N=C/c1cc(Br)ccc1OCC(=O)NCc1ccccc1 | 10.8%
34 | COc1ccc(C(=O)Nc2ccc(S(=O)(=O)N(C)c3ccccc3)cc2)cc1 | 14.3%
35 | O=C(Cn1ccc([N+](=O)[O-])n1)Nc1ccccn1 | 26.2%
36 | Cc1ccc(C(C(=O)NCc2ccco2)N(CC2CCCO2)C(=O)Cn2nnc3ccccc32)cc1 (stereo not drawn) | 10.8%
37 | Cc1cccc(OCCSc2nc3ncnc(N)c3[nH]2)c1 | 3.41%
38 | COc1ccc2nc(NC(=O)C3=NN(c4ccccc4)C(=O)CC3)sc2c1 | 19.5%
39 | CCOc1ccc(NC(=O)Nc2ccccc2SC)cc1 | 15.5%
40 | CCOC(=O)n1c(=O)oc2cc(S(=O)(=O)N3CCCCC3)ccc21 | 16.5%
41 | CN1C(=O)/C(=C/c2ccccc2OCc2ccccc2)NC1=S | 13.1%
42 | Cc1cc(C(=O)CN2C(=O)NC(C)(CC(C)C)C2=O)c(C)n1-c1ccc2c(c1)OCO2 (stereo not drawn) | 11.9%
43 | C/C(=N/Nc1ncc(Br)cn1)c1ccc([N+](=O)[O-])cc1 | -0.334%
44 | Cc1cc(C)c(OCC(=O)N(Cc2cccs2)C2CCS(=O)(=O)C2)c(C)c1 (stereo not drawn) | 2.16%

Row | Compound | hERG current change (%, negative = inhibition) at 1uM
45 | CC(C)(C)c1cc(-c2csc(Nc3ccccc3)[n+]2Cc2ccc(C(=O)O)cc2)cc(C(C)(C)C)c1O.[Br-] | -6.68%
46 | Cc1ccccc1CC1(CO)CCCN(Cc2nc(-c3cccs3)oc2C)C1 (stereo not drawn) | 6.69%
47 | CN1C(=O)/C(=C\c2ccco2)N=C1c1ccc(Cl)cc1Cl | 0.551%
48 | O=c1c2c(nc3cc(-c4cccc(F)c4)[nH]n13)CCC2 | 4.68%
49 | O=C(Nc1ccnn1C1CCN(C2CCCCC2)CC1)c1ccccc1 | 12.1%
50 | O=C(COc1cc(F)ccc1[N+](=O)[O-])Nc1ccc(N2CCCCC2)cc1 | 5.98%
51 | CCOc1ccc(S(=O)(=O)NCC2CCCO2)cc1 (stereo not drawn) | 0.189%
52 | S=C1CSc2ccccc2N1 | 5.58%
53 | CCOc1cc(/C=N/NC(=O)C2CCCC2)ccc1OC(C)C | 10%
54 | COC(=O)C1=C(C)NC(=O)CC1c1cc(Br)ccc1F (stereo not drawn) | 10.9%
55 | COc1ccc(CC(NC(C)=O)C(=O)NC2CCN(C(=O)C3CCCCC3)CC2)c(OC)c1 (stereo not drawn) | 15.6%
56 | O=C(O)c1cnc(-c2ccccc2)nc1Sc1ccc(Cl)cc1Cl | 2.55%
57 | O=C(Cc1cccs1)N(CC1CCCO1)C1(C(=O)NC2CCCCC2)CCCCC1 (stereo not drawn) | 13.6%
58 | CCOP(=O)(OCC)C(NC(=O)NS(=O)(=O)c1ccc(C)cc1)c1ccccc1 (stereo not drawn) | 10.1%
59 | COc1cc(Cl)c(S(=O)(=O)N2CCOCC2)cc1Cl | 1.24%
60 | COC(=O)[C@H]1[C@H]2C[C@@H]3c4[nH]c5cc(OC)ccc5c4CCN3C[C@H]2C[C@@H](OC(=O)c2ccc(N)cc2)[C@@H]1OC | 1.62%
61 | C=CCNC(=O)c1ccc(Cl)cc1Cl | 13.4%
62 | COc1ccc(N(C(=O)C(C)C)S(=O)(=O)c2ccc3c(c2)n(C)c(=O)n3C)cc1 | 6.68%
63 | CN(C(=O)c1ccncc1)C1CC(C)(C)N(O)C(C)(C)C1 | 4.11%
64 | CCCCn1c(O)c(/C=N/NC(=O)c2ccncc2)c(=O)[nH]c1=O | 5.98%
65 | COC(=O)c1[nH]c(C)c(/C(O)=C2\C(=O)C(=O)N(CCN3CCOCC3)C2c2ccccc2OC)c1C (stereo not drawn) | 24%
66 | O=C(NCc1ccc(Cl)s1)C1CCC(=O)N(CCc2ccccn2)C1 (stereo not drawn) | 8.38%

Row | Compound | hERG current change (%, negative = inhibition) at 1uM
67 | O=C(Nc1ccc(F)c(Cl)c1)c1ccc2c(=O)n3c(nc2c1)CCCCC3 | -6.01%
68 | COc1ccc2cc3cc(C(=O)NC(C)C)oc3nc2c1 | 9.83%
69 | COc1ccc(C(=O)c2sc(Nc3ccccc3)c(C(=O)Nc3ccc(OC)c(OC)c3)c2N)cc1 | 7.84%
70 | O=C(/C(=C\c1ccccc1)c1nc2ccccc2[nH]1)c1ccc(Cl)cc1 | 15.1%
71 | Cc1ccc(NC2CCCN(C(=O)c3cccnc3)C2)cc1C (stereo not drawn) | 12.2%
72 | O=C(CS(=O)CC(=O)Nc1ccccc1-c1ccccc1)Nc1ccc(F)cc1 (stereo not drawn) | 8.6%
73 | CC(=O)O/N=C/c1c(N2CCOCC2)n(C)c2ccccc12 | -7.31%
74 | O=C(O)CSc1c2ccccc2cc2ccccc12 | 9.22%
75 | COc1cc(C(=O)N=c2sccn2C)c([N+](=O)[O-])cc1OC | 18%
76 | CCN1C(=O)c2ccccc2S(=O)c2ccc(C(=O)N3CCCCCC3)cc21 (stereo not drawn) | 3.93%
77 | CCC(C)(C)NC(=O)c1cc(S(=O)(=O)N2CCc3ccccc32)cn1C | 0.204%
78 | CCOc1cc(/C=C2\COc3ccccc3C2=O)cc(Br)c1OCC(=O)N(C)C | 9.06%
79 | CCOc1ccc(NC(=O)CCN2CCCCC2)cc1 | 3.51%
80 | COC(=O)CC1COc2ccccc2N1C(=O)c1cccc(Cl)c1 (stereo not drawn) | 10.2%
81 | CCCCn1c(=S)[nH]c2ccccc2c1=O | 14.1%
82 | Cc1cccc(C)c1NC(=O)CCCSc1nc2ccccc2s1 | 11.3%
83 | O=C(NNc1nc(-c2ccc(Br)cc2)cs1)c1ccco1 | 0.235%
84 | CCOC(=O)c1cnn(-c2nc(-c3ccccc3)nc3c2COC(C)(C)C3)c1N | 13%
85 | CCOc1ccc(CCNC(=O)Nc2ccccc2)cc1OCC | 14.3%
86 | CC(CCC(=O)O)(c1ccc(O)cc1)c1ccc(O)cc1 | 8.24%
87 | CCOC(=O)c1sc(NC(=O)/C=C/c2c(F)cccc2Cl)nc1C | 6.05%

— PMC4336329 (PLoS ONE, 2015)
